# Reference: PubChem BioAssay (Tox21)
# The inconclusive results got no clear call from the source; some entries with a clear call stand among them for comparison. For some assays here: No potency is given beside an inconclusive call; the fits are too rough. Where a structure was tested more than once in an assay, its records may differ in their call. Activity calls are given as the source filed them. Unless noted, calls come from the whole dose curve; as a rule, active = well fitted curve in the direction sought with a large enough effect in the repeat runs; inconclusive = weak or mixed curves; inactive = no such curve, though single readings can be large; an effect the other way counts as inactive or inconclusive.
# Key:
# [1] = qHTS assay to identify small molecule agonists of the sonic hedgehog signaling (Shh) pathway (AID 1259368; calls by dose curve; note: nearly all actives have a fitted effect of over 15% in size; note: potency is the fitted concentration of half-maximal effect;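 for activity change: NIH/3T3-derived 3T3Gli1-Luc cells carrying a stable Gli1-driven firefly luciferase reporter; % is set by controls: 0 for no effect and ±100 for the full control effect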)
# In short: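 Hedgehog pathway agonism scored by increased firefly luciferase luminescence in 3T3Gli1-Luc cells treated 24 hr at 37 C; detection used a 30 min room-temperature reagent incubation.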
# [2] = qHTS assay to identify small molecule antagonists of the sonic hedgehog signaling (Shh) pathway - cell viability counter screen (AID 1259367); note: nearly all actives have a fitted effect of over 55% in size; note: potency is the fitted concentration of half-maximal effect
# In short: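 Tox21 library chemicals were tested on a Gli1-Luc NIH/3T3 clone (2,000 cells/well) stimulated by conditioned medium; viability was quantified as fluorescence from CellTiter-Fluor reagent added at 23 hr.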
# [3] = qHTS assay to identify small molecule antagonists of the estrogen receptor beta (ER-beta) signaling pathway - cell viability counter screen (AID 1259382); note: % is set by controls: 0 for no effect and ±100 for the full control effect; nearly all actives have a fitted effect of over 55% in size
# In short: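 Readout: luminescence, CellTiter-Glo, same wells as bla assay. System: ER-beta-UAS-bla GripTite HEK293T, 2% charcoal-stripped FBS. Exposure: compounds plus 1nM 17-beta-estradiol, 16 hr, 37C.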
# [4] = target: Estrogen receptor beta (Homo sapiens) (UniProt Q92731); assay: qHTS assay to identify small molecule antagonists of the estrogen receptor beta (ER-beta) signaling pathway (AID 1259378; active = well fitted inhibition curve with a large enough effect in the signal ratio in the repeat runs, not every such curve was filed as active; inconclusive = weak or mixed curves, or effect the other way; inactive = no such curve, though single readings can be large or run the other way; the % refers to the signal ratio; note: potency is the fitted concentration of half-maximal effect; for activity, negative = inhibition: % is set by controls: 0 for no effect and ±100 for the full control effect); settings: ER-beta-UAS-bla HEK293T, beta-lactamase FRET ratio, 16 h; activity, negative = inhibition: at 92.4 µM (top of the series) unless noted
# In short: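 ER-beta-UAS-bla HEK293T cells in 2% charcoal-stripped FBS medium treated with compound plus 1nM final 17-beta-estradiol for 16 hr at 37C. Beta-lactamase reporter read by FRET substrate fluorescence after 2 hours at room temperature.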
# [5] = target: Progesterone receptor (Homo sapiens) (UniProt P06401); assay: qHTS assay to identify small molecule antagonists of the progesterone receptor (PR) signaling pathway (AID 1346795; active = well fitted inhibition curve with a large enough effect in the signal ratio in the repeat runs, not every such curve was filed as active; inconclusive = weak or mixed curves; the % refers to the signal ratio; note: potency is the fitted concentration of half-maximal effect; for activity change, negative = inhibition: % is set by controls: 0 for no effect and ±100 for the full control effect); settings: PR-UAS-bla HEK293T, beta-lactamase FRET ratio, 16 h; activity change, negative = inhibition: at 92.4 µM (top of the series) unless noted
# In short: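 Read-out is fluorescence from the LiveBLAzer B/G FRET substrate, cleaved by a UAS-controlled beta-lactamase in PR-UAS-bla HEK293T cells after 16 hr exposure to compound plus 1 nM promegestone (final), followed by 2 hr at room temperature.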
# [6] = qHTS assay to identify small molecule antagonists of the progesterone receptor (PR) signaling pathway - cell viability counter screen (AID 1346798); note: potency is the fitted concentration of half-maximal effect; nearly all actives have a fitted effect of over 50% in size
# In short: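 HEK293T PR-UAS-bla, 2% charcoal-stripped FBS; 4 hr pre-plate; cpd + R5020, 16 h 37C; LiveBLAzer read first; then CellTiter-Glo 30 min RT, luminescence.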
# [7] = qHTS assay to identify small molecule agonists of the progesterone receptor (PR) signaling pathway - cell viability counter screen (AID 1346799; calls by dose curve; note: potency is the fitted concentration of half-maximal effect; nearly all actives have a fitted effect of over 45% in size)
# In short: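 Luminescence from CellTiter-Glo, added after the beta-lactamase FRET read in the same wells, gave cytotoxicity in PR-UAS-bla HEK293T cells treated with compounds for 16 hr at 37C.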
# [8] = qHTS assay to identify small molecule agonists of the androgen receptor (AR) signaling pathway in the presence of an antagonist - cell viability counter screen (AID 1259379); note: potency is the fitted concentration of half-maximal effect; nearly all actives have a fitted effect of over 25% in size
# In short: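 MDA-kb2 viability measured by CellTiter-Fluor fluorescence in the same wells as the luciferase signal; nilutamide 3.0uM final; 15-point compound titration; 16 hr at 37C.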
# [9] = qHTS assay to identify small molecule agonists of the estrogen receptor beta (ER-beta) signaling pathway - cell viability counter screen (AID 1259380); note: nearly all actives have a fitted effect of over 30% in size; note: potency is the fitted concentration of half-maximal effect
# In short: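 Measured: luminescence from CellTiter-Glo after 30 min at room temperature, added to wells already read for the LiveBLAzer FRET reporter (2 hr substrate); ER-beta-UAS-bla HEK293T cells had 16 hr compound treatment at 37C, 5% CO2.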
# [10] = target: Progesterone receptor (Homo sapiens) (UniProt P06401); assay: qHTS assay to identify small molecule agonists of the progesterone receptor (PR) signaling pathway (AID 1346784; calls by dose curve; note: nearly all actives have a fitted effect of over 30% in size; note: potency is the fitted concentration of half-maximal effect; for activation: % is set by controls: 0 for no effect and ±100 for the full control effect); settings: PR-UAS-bla HEK293T, beta-lactamase FRET ratio, 16 h; activation: at 92.4 µM (top of the series) unless noted
# In short: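 Beta-lactamase reporter read-out: after 16 hr compound treatment at 37C and a further 2 hr at room temperature with LiveBLAzer B/G FRET substrate, fluorescence was measured in PR-UAS-bla HEK 293T cells grown in 2% charcoal-stripped serum.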
# [11] = qHTS assay to identify small molecule antagonists of the sonic hedgehog signaling (Shh) pathway (AID 1259369; calls by dose curve; note: nearly all actives have a fitted effect of over 45% in size; note: potency is the fitted concentration of half-maximal effect)
# In short: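 NIH/3T3 stable Gli1-Luc clone, 2,000 cells/well, 4hr settle; cpd + conditioned medium 24hr; Luc reagent 30min RT; luminescence.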
# [12] = target: Estrogen receptor beta (Homo sapiens) (UniProt Q92731); assay: qHTS assay to identify small molecule agonists of the estrogen receptor beta (ER-beta) signaling pathway (AID 1259377; active = well fitted activation curve with a large enough effect in the signal ratio in the repeat runs, not every such curve was filed as active; inconclusive = weak or mixed curves, or effect the other way; the % refers to the signal ratio; note: potency is the fitted concentration of half-maximal effect); settings: ER-beta-UAS-bla HEK293T, beta-lactamase FRET ratio, 16 h; activation: at 92.4 µM (top of the series) unless noted
# In short: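 HEK293T ER-beta-UAS-bla; 2% charcoal-stripped FBS; cells pre-incubated 6 hr, compound 16 hr, 37C/5% CO2; LiveBLAzer B/G FRET substrate 2 h RT; fluorescence intensity read.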
# [13] = target: Thyrotropin receptor (Homo sapiens) (UniProt P16473); assay: qHTS assay to identify small molecule antagonists of the thyroid stimulating hormone receptor (TSHR) signaling pathway (AID 1259385; calls by dose curve; note: potency is the fitted concentration of half-maximal effect; nearly all actives have a fitted effect of over 20% in size); settings: TSHR-HEK293 cAMP HTRF, TSH-stimulated antagonist mode; activity change, negative = inhibition: at 92.4 µM (top of the series) unless noted
# In short: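 TSHR-HEK293 cells (800/well) plated 18 h, then compounds with Ro20-1724 and TSH at 1.5 ng/mL final, 30 min at room temperature. cAMP quantified by HTRF (cAMP-d2/anti-cAMP-cryptate, 1 h); 15 concentrations in triplicate.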
# [14] = qHTS assay to identify small molecule agonists of the estrogen receptor alpha (ER-alpha) signaling pathway in the presence of an antagonist - cell viability counter screen (AID 1259386);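 note: potency is the fitted concentration of half-maximal effect; cells exposed to compounds for 22 h at 37 °C before the viability read; nearly all actives have a fitted effect of over 30% in size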
# In short: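 The test measures whether compounds kill ER-alpha reporter cells (VM7Luc4E2) under antagonist co-treatment (ICI-182,780, 10.0nM). Fluorescence from CellTiter-Fluor is read after a 22hr exposure.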
# [15] = qHTS assay to identify small molecule antagonists of the TGF-beta/Smad signaling pathway - cell viability counter screen (AID 1346824); note: potency is the fitted concentration of half-maximal effect; nearly all actives have a fitted effect of over 50% in size
# In short: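 SBE-bla HEK 293T cells, incubated overnight, then compound plus 0.25 ng/mL TGF-beta1 (stock added) for 5 hr at 37 C. Viability was read in the same wells by CellTiter-Glo luminescence after 30 min at room temperature.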
# Tags give direction and shape of the fitted curve or compound fluorescence and quenching.
# UniProt Q92731, sequence (Q92731 whole entry, looked up): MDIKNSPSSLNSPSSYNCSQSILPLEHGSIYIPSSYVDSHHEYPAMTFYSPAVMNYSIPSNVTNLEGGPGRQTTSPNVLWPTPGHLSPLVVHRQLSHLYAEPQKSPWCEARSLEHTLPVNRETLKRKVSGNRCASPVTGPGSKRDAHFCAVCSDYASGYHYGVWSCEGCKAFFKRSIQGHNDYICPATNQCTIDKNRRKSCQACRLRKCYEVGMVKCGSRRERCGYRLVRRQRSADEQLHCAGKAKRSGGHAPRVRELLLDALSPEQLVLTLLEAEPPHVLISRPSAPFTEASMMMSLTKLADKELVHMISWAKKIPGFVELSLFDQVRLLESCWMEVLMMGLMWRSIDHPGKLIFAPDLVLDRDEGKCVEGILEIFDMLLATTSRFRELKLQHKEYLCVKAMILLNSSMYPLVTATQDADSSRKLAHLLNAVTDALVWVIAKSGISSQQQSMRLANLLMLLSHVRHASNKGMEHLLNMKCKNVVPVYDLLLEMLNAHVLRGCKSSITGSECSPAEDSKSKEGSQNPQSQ
# UniProt P06401, sequence (P06401 whole entry, looked up): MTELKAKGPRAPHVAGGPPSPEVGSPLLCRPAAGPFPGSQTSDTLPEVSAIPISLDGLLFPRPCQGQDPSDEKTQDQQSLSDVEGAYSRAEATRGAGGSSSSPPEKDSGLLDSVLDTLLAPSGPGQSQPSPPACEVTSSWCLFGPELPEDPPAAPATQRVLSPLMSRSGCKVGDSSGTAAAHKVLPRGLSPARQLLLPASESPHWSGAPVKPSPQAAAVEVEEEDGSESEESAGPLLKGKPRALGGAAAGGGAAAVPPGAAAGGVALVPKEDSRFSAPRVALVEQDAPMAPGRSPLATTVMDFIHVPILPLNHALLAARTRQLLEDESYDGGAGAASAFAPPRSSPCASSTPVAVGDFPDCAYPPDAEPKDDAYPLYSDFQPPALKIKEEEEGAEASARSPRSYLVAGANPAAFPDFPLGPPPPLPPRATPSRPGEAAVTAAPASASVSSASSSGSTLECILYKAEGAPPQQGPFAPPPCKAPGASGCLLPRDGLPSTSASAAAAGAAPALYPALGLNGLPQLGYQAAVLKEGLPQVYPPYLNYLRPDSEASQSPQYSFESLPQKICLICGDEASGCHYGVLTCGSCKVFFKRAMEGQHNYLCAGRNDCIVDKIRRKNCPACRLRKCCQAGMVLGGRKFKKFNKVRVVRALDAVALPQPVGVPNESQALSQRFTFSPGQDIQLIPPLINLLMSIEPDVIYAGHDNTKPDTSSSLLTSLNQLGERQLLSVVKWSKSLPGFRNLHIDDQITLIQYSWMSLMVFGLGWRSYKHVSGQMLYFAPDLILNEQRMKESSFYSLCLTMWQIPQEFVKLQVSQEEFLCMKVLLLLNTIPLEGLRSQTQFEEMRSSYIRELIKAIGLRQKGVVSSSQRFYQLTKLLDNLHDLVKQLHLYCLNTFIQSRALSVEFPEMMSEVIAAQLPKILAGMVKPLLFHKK
# UniProt P16473, sequence (P16473 whole entry, looked up): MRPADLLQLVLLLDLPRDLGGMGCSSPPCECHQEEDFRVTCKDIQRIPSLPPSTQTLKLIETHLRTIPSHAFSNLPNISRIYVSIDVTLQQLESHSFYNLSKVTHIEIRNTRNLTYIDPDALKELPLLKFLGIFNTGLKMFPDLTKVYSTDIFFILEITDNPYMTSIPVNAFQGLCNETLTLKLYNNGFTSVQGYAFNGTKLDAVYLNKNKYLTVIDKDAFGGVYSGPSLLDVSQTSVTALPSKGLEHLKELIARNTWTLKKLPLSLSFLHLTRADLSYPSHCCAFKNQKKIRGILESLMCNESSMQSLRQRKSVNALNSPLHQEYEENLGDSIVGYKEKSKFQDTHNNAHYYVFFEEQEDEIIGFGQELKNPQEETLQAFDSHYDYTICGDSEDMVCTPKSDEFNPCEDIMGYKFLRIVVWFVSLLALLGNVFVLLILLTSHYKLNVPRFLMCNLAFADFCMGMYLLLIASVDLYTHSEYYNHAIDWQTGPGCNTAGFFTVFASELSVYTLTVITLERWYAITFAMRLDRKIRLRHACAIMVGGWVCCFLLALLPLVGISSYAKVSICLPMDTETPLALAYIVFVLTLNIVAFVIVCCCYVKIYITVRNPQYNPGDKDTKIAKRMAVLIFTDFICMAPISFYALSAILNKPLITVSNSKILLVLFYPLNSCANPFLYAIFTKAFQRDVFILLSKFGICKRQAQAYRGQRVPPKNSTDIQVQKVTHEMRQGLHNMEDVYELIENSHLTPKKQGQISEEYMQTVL
smiles,measurement,setting,value
C=CC(=O)OCC(C)C,Potency,[1],"inconclusive [activator, partial curve]"
CCCC[N+]1(C)[C@@H]2CC(OC(=O)[C@H](CO)c3ccccc3)C[C@H]1[C@@H]1O[C@@H]12 (some centres undefined),Potency,[2],inactive
same,Potency,[3],inactive
CCOP(=S)(NC(C)C)Oc1ccccc1C(=O)OC(C)C (centres undefined),Potency,[2],"inconclusive [cytotoxic, partial curve, poor fit]"
same,"activity, negative = inhibition",[4],inconclusive: -64.5%
same,Potency,[5],"inconclusive [rising, partial curve]"
same,Potency,[6],"inconclusive [cytotoxic, full curve]"
same,Potency,[7],inconclusive [cytotoxic]
CC(=O)[O-].CC(=O)[O-].[Co+2],Potency,[1],active: 54.5 µM
same,"activity change, negative = inhibition",[5],inconclusive: -5.65%
same,Potency,[6],"inconclusive [rising, partial curve, poor fit]"
same,Potency,[7],"inconclusive [rising, partial curve]"
O=C1CCCCC1Cl (centres undefined),Potency,[2],inactive
same,Potency,[4],inactive
same,Potency,[3],inactive
CC[N+]1(C)CCCC1,Potency,[2],"inconclusive [cytotoxic, single point]"
same,Potency,[8],active: 61.3 µM
same,Potency,[9],inactive
same,Potency,[10],active: 19.8 µM
same,Potency,[6],"inconclusive [cytotoxic, single point]"
Nc1ccc(N=Nc2ccccc2)cc1,Potency,[1],active: 4.86 µM
same,Potency,[11],active: 21.7 µM
same,Potency,[12],inconclusive [fluorescent]
same,Potency,[4],active: 21.7 µM
same,Potency,[9],"inconclusive [cytotoxic, full curve]"
same,Potency,[13],"inconclusive [falling, full curve, poor fit]"
same,Potency,[14],active: 30.6 µM
same,activation,[10],inconclusive: -9.04%
same,Potency,[5],inconclusive
same,Potency,[6],inconclusive
same,Potency,[7],inconclusive
CCCCCCOC(=O)c1ccccc1C(=O)OCCCCCC,Potency,[2],inactive
same,Potency,[15],"inconclusive [cytotoxic, partial curve, poor fit]"
CCOC(=O)C1OC1(C)c1ccccc1 (centres undefined),Potency,[1],inactive
same,Potency,[4],inactive
same,"activity change, negative = inhibition",[5],inconclusive: 7.58%
O=C(CCN1CC1)OCC(CO)(COC(=O)CCN1CC1)COC(=O)CCN1CC1,Potency,[11],inactive
Nc1cc(Cl)cc(C(=O)O)c1Cl,Potency,[11],inactive
same,Potency,[12],inactive
same,Potency,[4],inactive
CCCCP(CCCC)CCCC,Potency,[11],"inconclusive [inhibitor, partial curve, poor fit]"
same,Potency,[12],"inconclusive [activator, partial curve, poor fit]"
same,Potency,[4],inactive
same,Potency,[9],"inconclusive [cytotoxic, single point]"
